{"source": "paper PMC4336329", "about": "(PLoS ONE, 2015)", "note": "Screen size: about 310,000 compounds; about 14,000 (4.5%) showed an effect of 50% or more. The effect is printed as a negative number. The list shows a part of the results.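 Note: peak tail current of the secondary pulse compared with the same well before compound.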"}
{"target": "human ether-à-go-go-related gene (hERG) potassium channel (human, UniProt Q12809)", "sequence (Q12809 whole entry, looked up)": "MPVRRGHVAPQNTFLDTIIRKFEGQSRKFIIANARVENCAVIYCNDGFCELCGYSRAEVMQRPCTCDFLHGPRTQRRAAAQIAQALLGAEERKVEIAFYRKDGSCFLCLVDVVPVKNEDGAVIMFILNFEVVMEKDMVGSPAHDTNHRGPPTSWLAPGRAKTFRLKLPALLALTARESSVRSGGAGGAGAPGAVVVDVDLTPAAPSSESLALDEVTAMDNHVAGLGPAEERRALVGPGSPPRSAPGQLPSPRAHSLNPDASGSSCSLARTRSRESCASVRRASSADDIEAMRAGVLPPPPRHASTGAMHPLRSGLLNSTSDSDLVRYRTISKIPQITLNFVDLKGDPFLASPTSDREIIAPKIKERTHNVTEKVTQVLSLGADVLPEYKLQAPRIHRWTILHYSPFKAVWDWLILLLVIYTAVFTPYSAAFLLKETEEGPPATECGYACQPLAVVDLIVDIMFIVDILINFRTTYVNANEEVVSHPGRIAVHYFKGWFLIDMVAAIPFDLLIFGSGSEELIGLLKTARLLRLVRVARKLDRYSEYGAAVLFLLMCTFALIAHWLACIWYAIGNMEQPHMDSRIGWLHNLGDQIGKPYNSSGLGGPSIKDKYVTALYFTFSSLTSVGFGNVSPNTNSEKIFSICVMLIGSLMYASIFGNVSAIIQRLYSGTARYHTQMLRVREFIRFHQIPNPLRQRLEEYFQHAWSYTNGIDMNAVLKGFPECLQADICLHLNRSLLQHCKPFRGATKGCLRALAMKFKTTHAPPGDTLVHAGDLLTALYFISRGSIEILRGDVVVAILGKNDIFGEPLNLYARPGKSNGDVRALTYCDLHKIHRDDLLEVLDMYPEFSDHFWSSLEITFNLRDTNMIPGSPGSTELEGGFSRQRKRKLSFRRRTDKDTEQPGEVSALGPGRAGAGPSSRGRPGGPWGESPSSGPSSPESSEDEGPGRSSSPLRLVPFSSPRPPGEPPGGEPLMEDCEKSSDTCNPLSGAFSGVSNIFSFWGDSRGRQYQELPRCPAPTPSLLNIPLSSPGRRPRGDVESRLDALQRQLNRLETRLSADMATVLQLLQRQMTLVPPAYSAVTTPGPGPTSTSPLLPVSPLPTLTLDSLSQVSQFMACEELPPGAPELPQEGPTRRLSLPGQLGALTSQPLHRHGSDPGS", "test": "primary screen, population patch clamp on CHO cells stably expressing hERG", "units": {"hERG current change (%, negative = inhibition) at 10uM": "%"}}
{"smiles": "COCCNC(=O)Nc1ccc2nc(-c3cccs3)c(-c3cccs3)nc2c1", "hERG current change (%, negative = inhibition) at 10uM": 5.82}
{"smiles": "COc1ccc(Cc2noc(CN(C)CCc3ccccc3)n2)cc1OC", "hERG current change (%, negative = inhibition) at 10uM": 7.3}
{"smiles": "Cc1c(N(C(=O)c2cnccn2)C2(C(=O)NC3CCCC3)CCCCC2)c(=O)n(-c2ccccc2)n1C", "hERG current change (%, negative = inhibition) at 10uM": -27.1}
{"smiles": "CCCCCOc1ccc(C(=O)NC(C(=O)O)C(C)C)cc1", "note": "(centres unmarked)", "hERG current change (%, negative = inhibition) at 10uM": 6.65}
{"smiles": "CCC(=O)NC(Nc1ccccn1)(C(=O)OC)C(F)(F)F", "note": "(centres unmarked)", "hERG current change (%, negative = inhibition) at 10uM": 33}
{"smiles": "COc1ccc(C(=O)Nc2c(O)ccc3ccccc23)cc1", "hERG current change (%, negative = inhibition) at 10uM": 18.8}
{"smiles": "CC(C(=O)N(C)c1ccccc1)N1CCN(C(=O)c2ccccc2)CC1.O=C(O)C(=O)O", "note": "(centres unmarked)", "hERG current change (%, negative = inhibition) at 10uM": 19.2}
{"smiles": "O=C(NCCCN1CCOCC1)c1nn2c(C(F)(F)F)cc(-c3ccco3)nc2c1Cl", "hERG current change (%, negative = inhibition) at 10uM": -9.44}
{"smiles": "Nc1ccc(C(=O)N2CCN(S(=O)(=O)c3ccc4c(c3)OCCCO4)CC2)cc1[N+](=O)[O-]", "hERG current change (%, negative = inhibition) at 10uM": -31.9}
{"smiles": "COc1ccc(-c2ccnc(-c3ccc(OCCCF)cc3)n2)cc1", "hERG current change (%, negative = inhibition) at 10uM": 3.51}
{"smiles": "COc1ccc(/C=N/n2cnc3c([nH]c4ccc(C)cc43)c2=O)cc1CN1CCCC1", "hERG current change (%, negative = inhibition) at 10uM": -63.2}
{"smiles": "CCN(CC)S(=O)(=O)c1cccc(C(=O)N/N=C/c2cccc(O)c2O)c1", "hERG current change (%, negative = inhibition) at 10uM": 9.35}
{"smiles": "COc1cccc(/C=C/C(=O)OCC(=O)N2c3ccccc3NC(=O)C2(C)C)c1", "hERG current change (%, negative = inhibition) at 10uM": 4.91}
{"smiles": "COc1ccc(N(CC(=O)N2CCC(Cc3ccccc3)CC2)S(C)(=O)=O)cc1", "hERG current change (%, negative = inhibition) at 10uM": -44.1}
{"smiles": "Nc1c(C(=O)c2ccccc2O)cnn1-c1ccc(S(=O)(=O)N2CCOCC2)cc1[N+](=O)[O-]", "hERG current change (%, negative = inhibition) at 10uM": 17}
{"smiles": "Cc1c(CCO)c(=O)[nH]n1S(=O)(=O)c1ccc([N+](=O)[O-])cc1", "hERG current change (%, negative = inhibition) at 10uM": 12.8}
{"smiles": "CCc1ccc(C(=O)/C=C2\\Sc3ccccc3NC2=O)cc1", "hERG current change (%, negative = inhibition) at 10uM": 18.7}
{"smiles": "COc1ccccc1Nc1nnc(SC(C)C(=O)NC2CC2)s1", "note": "(centres unmarked)", "hERG current change (%, negative = inhibition) at 10uM": -4.64}
{"smiles": "CC(=O)N1CCc2cc(S(=O)(=O)NCCC(=O)NC3CCN(Cc4ccccc4)CC3)ccc21", "hERG current change (%, negative = inhibition) at 10uM": 10.8}
{"smiles": "Cc1cc(C)c(S(=O)(=O)n2cnc3ccccc32)c(C)c1", "hERG current change (%, negative = inhibition) at 10uM": 9.67}
{"smiles": "Cc1ccc(C2(C)NC(=O)N(CC(=O)Nc3ccc4[nH]c(=O)[nH]c4c3)C2=O)cc1", "note": "(centres unmarked)", "hERG current change (%, negative = inhibition) at 10uM": -3.13}
{"smiles": "CCC1CCC2(CC1)NC(CO)(CO)CO2", "note": "(centres unmarked)", "hERG current change (%, negative = inhibition) at 10uM": 8.52}
{"smiles": "N/C(=N\\OC(=O)Cc1cccs1)c1ccccc1", "hERG current change (%, negative = inhibition) at 10uM": -6.77}
{"smiles": "O=C(COC(=O)Cc1ccc(Cl)cc1Cl)NCCC1=CCCCC1", "hERG current change (%, negative = inhibition) at 10uM": 8.53}
{"smiles": "COc1ccc(C2C(C(=O)N3CCCC3)CC(=O)N2c2ccc(OC)cc2)cc1", "note": "(centres unmarked)", "hERG current change (%, negative = inhibition) at 10uM": 0.91}
{"smiles": "COc1cccc(C(=O)Nc2nnc(-c3ccc(Cl)cc3)o2)c1", "hERG current change (%, negative = inhibition) at 10uM": -14.4}
{"smiles": "Cc1cccc2sc(N(CCCN(C)C)C(=O)COc3ccc(Cl)cc3)nc12.Cl", "hERG current change (%, negative = inhibition) at 10uM": -60.5}
{"smiles": "O=C(NC1CCCCC1)C(c1cccnc1)N(C(=O)c1csnn1)c1ccccc1", "note": "(centres unmarked)", "hERG current change (%, negative = inhibition) at 10uM": -5.89}
{"smiles": "O=C(NNS(=O)(=O)c1ccc2ccccc2c1)c1cccnc1", "hERG current change (%, negative = inhibition) at 10uM": -1.23}
{"smiles": "CNC(=O)/C(C#N)=C/c1c(N2CCCCCC2)nc2c(C)cccn2c1=O", "hERG current change (%, negative = inhibition) at 10uM": -12.7}
{"smiles": "Cc1occc1C(=O)NC(C)C(C)(C)C", "note": "(centres unmarked)", "hERG current change (%, negative = inhibition) at 10uM": 2.67}
{"smiles": "O=C(OCCOc1ccc(F)cc1)c1ccc(S(=O)(=O)N2CCCC2)cc1", "hERG current change (%, negative = inhibition) at 10uM": 5.02}
{"smiles": "CCOc1ccccc1NC(=O)CSc1nc2ccccc2nc1N1CCOCC1", "hERG current change (%, negative = inhibition) at 10uM": -30.5}
{"smiles": "C/C(=N\\OCC(=O)NC(C)C)c1cccs1", "hERG current change (%, negative = inhibition) at 10uM": 46.1}
{"smiles": "O=C(Nc1cccc(S(=O)(=O)N2CCOCC2)c1)c1cc([N+](=O)[O-])ccc1N1CCOCC1", "hERG current change (%, negative = inhibition) at 10uM": -15.2}
{"smiles": "Cc1cc(NC(=O)CSc2ncccc2C(=O)O)no1", "hERG current change (%, negative = inhibition) at 10uM": 4.04}
{"smiles": "Cc1ccc(S(=O)(=O)N2CC=C(C(=O)NC3CC3)CC2)cc1", "hERG current change (%, negative = inhibition) at 10uM": -3.78}
{"smiles": "CCOC(=O)C1C(=O)CC(O)(c2ccccc2)CC1c1ccccc1", "note": "(centres unmarked)", "hERG current change (%, negative = inhibition) at 10uM": -0.475}
{"smiles": "CCN(CC)c1c([N+](=O)[O-])c(=O)sc2ccccc12", "hERG current change (%, negative = inhibition) at 10uM": 7.23}
{"smiles": "COc1ccc(CC(=O)OCC(=O)Nc2ccc(OC(F)F)cc2)cc1OC", "hERG current change (%, negative = inhibition) at 10uM": -19.7}
{"smiles": "COc1ccc(CC(=O)NNC(=O)c2ccc(Br)o2)cc1", "hERG current change (%, negative = inhibition) at 10uM": 14.5}
{"smiles": "O=C(Nc1ccc2c(c1)OCCO2)NC12CC3CC(CC(C3)C1)C2", "hERG current change (%, negative = inhibition) at 10uM": 13.2}
{"smiles": "CN(C)c1ccc(CN2CCCC(O)C2)cc1", "note": "(centres unmarked)", "hERG current change (%, negative = inhibition) at 10uM": 6.62}
{"smiles": "Cc1nc(Nc2ccc3c(c2)OCO3)c2oc3ccccc3c2n1", "hERG current change (%, negative = inhibition) at 10uM": -0.494}
